# Experimental data as given in PubChem BioAssay AID1030 (National Center for Advancing Translational Sciences (NCATS), 2008).
# The whole screen tested about 220,000 compounds, of which about 16,000 (7.3%) were called active. The shares of active, inactive and inconclusive entries below differ from those in the screen. The call rests on the fitted dose curve; in most records, active means well fitted inhibition curve with a large enough effect (not every such curve was filed as active); inconclusive means small, poorly fitted or top-dose-only effect, or another doubt; inactive means no such curve, though single readings can be large or run the other way. Potencies of inconclusive entries are left out as doubtful fits.
# Molecular target: Aldehyde dehydrogenase 1A1 (Homo sapiens) (UniProt P00352)
# Sequence of UniProt P00352 (P00352 whole entry, looked up): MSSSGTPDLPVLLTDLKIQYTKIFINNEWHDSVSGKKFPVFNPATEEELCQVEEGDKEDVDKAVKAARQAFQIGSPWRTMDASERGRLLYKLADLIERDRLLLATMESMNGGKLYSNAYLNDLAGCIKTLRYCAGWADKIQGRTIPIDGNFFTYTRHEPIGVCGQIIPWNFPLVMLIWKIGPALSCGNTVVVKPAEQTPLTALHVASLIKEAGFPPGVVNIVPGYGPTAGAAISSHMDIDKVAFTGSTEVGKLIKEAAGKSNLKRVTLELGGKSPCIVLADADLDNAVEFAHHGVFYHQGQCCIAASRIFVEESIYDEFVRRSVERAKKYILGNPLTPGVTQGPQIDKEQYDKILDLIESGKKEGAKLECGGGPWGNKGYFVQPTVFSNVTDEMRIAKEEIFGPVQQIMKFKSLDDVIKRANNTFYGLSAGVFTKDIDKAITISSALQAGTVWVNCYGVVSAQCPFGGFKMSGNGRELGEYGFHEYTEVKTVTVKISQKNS
# Assay: qHTS Assay for Inhibitors of Aldehyde Dehydrogenase 1 (ALDH1A1);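 on activity, negative = inhibition: plate controls were no enzyme wells and a reference inhibitor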
# Settings: Purified ALDH1A1, NADH fluorescence, propionaldehyde substrate; series mostly up to 75.3 µM; activity, negative = inhibition: at the top concentration
# Potency means the concentration at half of the fitted maximal effect; tags describe the fitted curve by direction and shape.
Structure (SMILES),Potency,"activity, negative = inhibition"
CC12CN3CC(C)(CN(C1)C3c1ccc3c(c1)OCO3)C2=O (stereo unspecified),"inconclusive [inhibitor, partial curve]",–
Cc1cnc(NC(=O)c2cccc(S(=O)(=O)N3CC(C)OC(C)C3)c2)s1 (stereo unspecified),"inconclusive [inhibitor, partial curve]",–
CC(=O)Nc1cccc(S(=O)(=O)N2CCCCCC2)c1,–,inactive: 1.69%
O=C(Nc1cccc2cccnc12)c1ccc(Br)o1,"inconclusive [inhibitor, single point]",–
COc1ccc(CCCc2n[nH]c(=S)o2)cc1,"inconclusive [inhibitor, single point]",–
O=C(CCSc1nnc2ccccn12)Nc1ccc(F)cc1,"inconclusive [inhibitor, single point]",–
Cc1[nH]c2ccccc2c1C(=O)CSc1ccccn1,"inconclusive [inhibitor, single point]",–
Cc1ccc(N2NC(=O)/C(=C/c3ccc(-c4ccc(Cl)c(C(=O)O)c4)o3)C2=O)cc1,active: 8.91 µM,–
Cc1cc(C2(c3cc(C)c(O)cc3C)OS(=O)(=O)c3ccccc32)c(C)cc1O,active: 28.2 µM,–
Cn1c(=N)c(S(=O)(=O)c2ccc(F)cc2)cc2c(=O)n3ccccc3nc21,"inconclusive [inhibitor, partial curve]",–
Cc1cc(NS(=O)(=O)c2ccc(NC(=O)c3cc(-c4cccnc4)nc4ccc(Cl)cc34)cc2)no1,–,inactive: -5.45%
CCN(CC)S(=O)(=O)c1cccc(-c2n[nH]c(=S)n2/N=C/c2ccc(C(=O)OC)cc2)c1,active: 22.4 µM,–
CC(OC(=O)c1nsc(Cl)c1Cl)C(=O)NCc1ccco1 (stereo unspecified),–,inactive: 2.46%
Cc1cc(C)cc(Oc2ccc(NC(=O)C3CC=CCC3C(=O)O)cc2)c1 (stereo unspecified),active: 2.82 µM,–
Cc1cccc2cc(C(c3nnnn3Cc3ccc4c(c3)OCO4)N3CCCC3)c(=O)[nH]c12 (stereo unspecified),"inconclusive [inhibitor, partial curve]",–
Cc1cccc(Nc2nnc(-c3ccc(N4CCOCC4)c([N+](=O)[O-])c3)c3ccccc23)c1,"inconclusive [inhibitor, full curve]",–
Cc1nc2ccccn2c1/C(O)=C1\C(=O)C(=O)N(CCN2CCOCC2)C1c1ccncc1 (stereo unspecified),"inconclusive [inhibitor, single point]",–
CCc1ccc2[nH]c(=O)c(CN(Cc3ccco3)S(=O)(=O)c3ccc4c(c3)OCCO4)cc2c1,"inconclusive [inhibitor, partial curve]",–
O=C(NC(=S)Nc1cccc2c(O)cccc12)c1cccc(Br)c1,active: 3.16 µM,–
O=C(CSc1nnnn1-c1cccc2ccccc12)NC(C(=O)O)(c1ccccc1)c1ccccc1,"inconclusive [inhibitor, partial curve]",–
CC(NC(=O)c1ccc(Br)s1)c1ccncc1 (stereo unspecified),"inconclusive [inhibitor, single point]",–
CO/N=C1\CN(c2nc3c(cc2F)c(=O)c(C(=O)O)cn3C2CC2)CC1CN (stereo unspecified),–,inactive: -8.26%
Cc1ccc(NC(=O)CN2C(=O)NC(C)(CCc3ccccc3)C2=O)cc1 (stereo unspecified),"inconclusive [inhibitor, single point]",–
CC1CC(CCC(=O)NC(=S)Nc2ccc(S(N)(=O)=O)cc2)C(=O)O1 (stereo unspecified),–,inactive: 3.48%

Structure (SMILES),Potency,"activity, negative = inhibition"
CC(=O)c1ccc(NC(=O)c2cnn3ccccc23)cc1,active: 12.6 µM,–
Cc1oc(-c2ccccc2)cc1C(=O)Nc1ccccc1,–,inactive: 5.74%
O=C(COC(=O)c1ccccc1NC(=O)c1ccco1)NC1CCCCC1,"inconclusive [inhibitor, single point]",–
Cc1cc(C)n2ncc(C(=O)NCCc3ccccc3)c2n1,"inconclusive [inhibitor, single point]",–
COc1ccc(C2=CC(c3ccc(OC)c(OC)c3)NC(=S)N2)cc1 (stereo unspecified),"inconclusive [inhibitor, partial curve]",–
CC1(C)Cc2c(sc3nc4n(c(=O)c23)CCC4)CO1,"inconclusive [inhibitor, single point]",–
CCOC(=O)CSc1nc(C)c(C(=O)OCC)s1,"inconclusive [inhibitor, single point]",–
Cc1cccc(C)c1Nc1nnc(SCc2cc([N+](=O)[O-])cc3c2OCOC3)s1,active: 22.4 µM,–
CCOc1cc2c(Cl)ncnc2c(OCC)c1OCC,"inconclusive [inhibitor, single point]",–
CCOC(=O)c1oc2c(C)c(O)ccc2c(=O)c1-c1nncn1-c1ccccc1,–,inactive: 0.58%
COc1ccc(Nc2nnc(SCC(=O)c3cc(C)n(CC4CCCO4)c3C)s2)cc1 (stereo unspecified),active: 6.31 µM,–
CCOC1=C/C(=C/c2c(N)n3oc(C)cc3nc2=O)C=CC1=O,"inconclusive [inhibitor, single point]",–
COCCN(C(=O)CCc1ccc(OC)cc1)c1nnc(-c2ccncc2)s1,active: 22.4 µM,–
Cc1ccsc1C1Nc2ccccc2C(=O)N1O (stereo unspecified),–,inactive: -9.2%
Cc1ncoc1C(=O)Nc1cccc(Cl)c1,"inconclusive [inhibitor, single point]",–
COC(=O)Cn1c(=NC(=O)c2nc3ccccc3s2)sc2cc(S(N)(=O)=O)ccc21,"inconclusive [inhibitor, single point]",–
O=C(CCc1nnc(Cc2ccc3c(c2)OCO3)o1)NCc1nc2ccccc2s1,–,inactive: -5.44%
CCSc1nnc(-c2cnn(-c3ccccc3)c2-n2cccc2)n1C,"inconclusive [inhibitor, single point]",–
COc1ccc(S(=O)(=O)Nc2cccc(SC)c2)cc1OC,–,inactive: 0.252%
CNc1ccnc(-c2ccccc2C)n1,–,inactive: -5.36%
COc1cccc(CS(=O)(=O)c2nnnn2-c2ccccc2)c1,active: 1 µM,–
Cc1ccc(NC(=O)Cc2cn(C)c3ccccc23)cc1F,"inconclusive [inhibitor, single point]",–
COc1ccccc1NC(=O)c1sc2ncn(Cc3cccc(C)c3)c(=O)c2c1C,"inconclusive [inhibitor, single point]",–
CCC(Cc1ccccc1)NC(=O)C1CCC(CNc2c(N3CCCC3)c(=O)c2=O)CC1 (stereo unspecified),–,inactive: -11.1%

Structure (SMILES),Potency,"activity, negative = inhibition"
[O-]/C(=C(\C(=S)NCc1ccccc1)[n+]1ccccc1)c1ccc(Cl)cc1,active: 8.91 µM,–
O=C(Nc1ccccc1N1CCOCC1)c1ccc2c(c1)C(=O)N(Cc1ccncc1)C2=O,"inconclusive [inhibitor, partial curve]",–
O=C(Nc1cc(C(=O)N2CCCC2)ccc1N1CCCC1)c1ccccc1,"inconclusive [inhibitor, single point]",–
COC(=O)CCC(=O)OC1(C)C(=O)C=C2C=C(C3CC3)N(Cc3ccc(OC)cc3)C=C2C1=O (stereo unspecified),"inconclusive [inhibitor, partial curve]",–
CCOC(=O)CN1C(=O)S/C(=C/c2cc(C)n(-c3ccccn3)c2C)C1=O,"inconclusive [inhibitor, partial curve]",–
COC(=O)c1cc(Br)c(=O)n(-c2ccc(OC)cc2)c1,"inconclusive [inhibitor, single point]",–
COc1cc(/C=C(\C#N)C(N)=O)ccc1OCc1c(C)no[n+]1[O-],"inconclusive [inhibitor, single point]",–
S=c1[nH]nc(-c2cc(-c3ccccc3)n[nH]2)n1/N=C/C=C/c1ccco1,"inconclusive [inhibitor, single point]",–
CCCc1nnc(NC(=O)CCC(=O)N2CCN(c3ccccn3)CC2)s1,"inconclusive [inhibitor, partial curve]",–
O=C(Oc1ccc(C(=S)N2CCOCC2)cc1Br)c1ccccc1F,active: 25.1 µM,–
O=[N+]([O-])c1ccc(O)c(/C=N/Nc2ccc(Cl)nn2)c1,"inconclusive [inhibitor, single point]",–
Nc1c(C(=O)Nc2ccccc2F)sc2nc(-c3ccco3)ccc12,"inconclusive [inhibitor, full curve]",–
CC(C(=O)Nc1ccccc1-c1ccccc1)N1CCN(C(=O)c2ccccc2)CC1 (stereo unspecified),active: 12.6 µM,–
N#Cc1c(-c2cccs2)cc(C2CC2)nc1SCC(N)=O,"inconclusive [inhibitor, partial curve]",–
Cc1ccc(C)c(NC(=O)c2cnc3n(c2=O)CCS3)c1,–,inactive: 12.3%
CCOC(=O)CSc1nnc(CNC(=O)c2ccc(S(=O)(=O)N3CCCCC3)cc2)n1C,"inconclusive [inhibitor, single point]",–
O=c1c2ccccc2[nH]c(=S)n1CCN1CCCC1,"inconclusive [inhibitor, single point]",–
O=c1[nH]c2ccc(Br)cc2c(-c2ccccc2)c1CN1CCOCC1,"inconclusive [inhibitor, partial curve]",–
Cc1nn(-c2ccccc2)c2sc(C(=O)n3cccn3)cc12,"inconclusive [inhibitor, single point]",–
O=C(CCSCCc1ccccn1)Nc1ccc(Cl)cn1,"inconclusive [inhibitor, partial curve, poor fit]",–
Cc1oc2cc(O)cc(C)c2c(=O)c1-c1cnn(-c2ccccc2)c1,"inconclusive [inhibitor, single point]",–
COCc1nnc(NC(=O)c2cc(Cl)ccc2OC)s1,"inconclusive [inhibitor, partial curve]",–
COc1ccc(C(C)n2c(C)c3c(C)nnc(C)c3c2C)cc1 (stereo unspecified),"inconclusive [inhibitor, single point]",–
